Test results: PubChem BioAssay AID1347417 (National Center for Advancing Translational Sciences (NCATS), 2020)
Hit rate of the full screen: of about 120,000 compounds, about 5,300 (4.4%) were called active. The shares of active, inactive and inconclusive entries below differ from those in the screen. Calls follow the shape of the dose curve; as a rule, active = well fitted inhibition curve with a large enough effect; inconclusive = small, poorly fitted or top-dose-only effect; inactive = no such curve, though single readings can be large or run the other way. Potencies beside an inconclusive call are fits to weak or partial responses and may not hold up.

Assay: qHTS Primary assay for Inhibitors of Plasmodium falciparum Dd2 growth in vitro; also: nearly all actives have a fitted effect of over 65% in size;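 as to activity, negative = inhibition: plate controls were DMSO vehicle for no effect and reference drug for full effect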
Settings: P. falciparum Dd2 growth, SYBR Green, 72 h; activity, negative = inhibition: at 28.9 µM (top of the series) unless noted; series mostly up to 28.9 µM
In short: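 Infected erythrocytes (Dd2, 0.3% parasitemia, 2.5% hematocrit final) are added to compound in RPMI-1640/Albumax II medium, grown 72 h at 37C in low oxygen, then lysed with saponin/Triton-X containing SYBR Green and read by fluorescence.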
Potency is read from the fitted curve at half-maximal effect; tags tell the direction and shape of the fitted curve.

Row | Compound | Potency | activity, negative = inhibition | outcome
1 | COc1ccc(-c2noc([C@@H]3Cc4nc[nH]c4CN3C(=O)CC(C)(C)CC(=O)O)n2)cc1 | inconclusive: 17.8 µM [inhibitor, single point] | – | –
2 | CC(C)N1C(=O)C(CC(=O)NCC2CCN(Cc3ccccc3F)CC2)=C2CCCCC21 (centres undefined) | inconclusive: 11.2 µM [inhibitor, single point] | – | –
3 | Cc1ccsc1CN1CCCC12Cc1ccccc1CNC2=O (centres undefined) | inconclusive: 20 µM [inhibitor, single point] | – | –
4 | CCCn1c(=O)sc2cc(NC(=O)c3ccccc3Cl)ccc21 | inconclusive: 3.98 µM [inhibitor, partial curve] | – | –
5 | COc1cc(NC(=O)CCn2nc(C)cc2C)cc(OC)c1OC | inconclusive: 17.8 µM [inhibitor, single point] | – | –
6 | CC(O)CNC(=O)C1CCN(c2nc(-c3ccccc3)nc3c2CCC3)CC1 (centres undefined) | inconclusive: 10 µM [inhibitor, single point] | – | –
7 | CCN(CC)C(=O)c1c(NC(=O)c2ccccc2F)sc2c1CCC(C(C)(C)C)C2 (centres undefined) | inconclusive: 12.6 µM [inhibitor, single point] | – | –
8 | CCc1ccc(-c2nn(-c3ccc(OC)cc3)c3c2cnc2ccc(OC)cc23)cc1 | inconclusive: 1 µM [inhibitor, single point] | – | –
9 | O=C(Cc1c(F)cccc1Cl)N1[C@H]2CC[C@@H]1c1cnc(-c3ccccc3)nc1C2 | inconclusive: 10 µM [inhibitor, partial curve, poor fit] | – | –
10 | CC1(c2ccccc2)N(Cc2ncccn2)C(=O)OC12CCN(Cc1ccc(F)cc1)CC2 (centres undefined) | inconclusive: 12.6 µM [inhibitor, single point] | – | –
11 | CC(C)(C)OC(=O)N1CCC(c2c(C(=O)N3CCCCC3)cnn2-c2ccc(F)cc2)CC1 | – | inactive: 3.09% | –
12 | COC(=O)c1ccc(NC(=O)c2cnn(-c3ccc(Cl)cc3)c2C2CCN(C(=O)OC(C)(C)C)CC2)cc1 | active: 7.94 µM | – | –
13 | CN1C(=O)CCCCC1C(=O)NCC1CCN(Cc2cccc(F)c2)CC1 (centres undefined) | inconclusive: 1.26 µM [inhibitor, full curve, poor fit] | – | –
14 | CCN(Cc1ccccc1)C(=O)Cn1c(=O)n(-c2ccccc2)c(=O)c2c1c1cc(C)ccc1n2C | inconclusive: 17.8 µM [inhibitor, single point] | – | –
15 | CCc1ccc(CSc2nc(-c3ccccc3F)nc3c2Cc2c(CO)cnc(C)c2O3)cc1 | active: 10 µM | – | –
16 | NCCC(=O)N1CCCC2(Cc3ccccc3CN2C(=O)c2ccccc2)C1 (centres undefined) | – | inactive: 4.52% | –
17 | CCC(=O)NNc1ncnc2c1cnn2-c1ccc(C)c(Cl)c1 | – | – | inactive
18 | COc1ccc(C(=O)NCCc2ncc(C)n2CC2CC2)cn1 | – | inactive: 8.04% | –
19 | CCC(=O)C1=C(c2ccc(F)cc2)N(C(=O)CC)n2c(nnc2-c2ccc(OC)cc2)S1 | active: 3.16 µM | – | –
20 | COCCC(=O)N1CCCN(CCc2ccccc2)c2ccccc21 | – | – | inactive
21 | COCCn1c(C)cnc1CC1CCCN(Cc2ccc(F)c(F)c2)C1 (centres undefined) | inconclusive: 1 µM [inhibitor, partial curve, poor fit] | – | –
22 | Cn1c(=O)oc2cc(S(=O)(=O)CCC(=O)N3CCN(c4ccccc4F)CC3)ccc21 | inconclusive: 1.12 µM [inhibitor, full curve, poor fit] | – | –
23 | CCc1nn(CC(=O)N2CCN(c3ccc(OC)cc3)CC2)c(=O)c2cc3sccc3n12 | – | – | inactive

Row | Compound | Potency | activity, negative = inhibition | outcome
24 | O=c1c2c3c(nn2ccn1Cc1ccccc1)CCCC3 | – | – | inactive
25 | O=C(O)COc1ccc(-c2nccc3c2C(=O)N(Cc2ccccc2)CC(COc2ccc(Cl)cc2)O3)cc1 (centres undefined) | inconclusive: 10 µM [inhibitor, single point] | – | –
26 | Cc1ccc(Cl)cc1NC(=O)N1CCC(OC2CCN(S(C)(=O)=O)CC2)CC1 | – | inactive: 111% | –
27 | CC(C)(C)c1ccc(C(=O)NCC(c2cccnc2)N2CCc3ccccc3C2)cc1 (centres undefined) | inconclusive: 17.8 µM [inhibitor, single point] | – | –
28 | Cc1cccc(CN2C(=O)c3ccccc3Sc3ccc(C(=O)NC4CCCCC4)cc32)c1 | inconclusive: 10 µM [inhibitor, single point] | – | –
29 | CC1(C)[C@H]2CC[C@@H](CNC(=O)c3ccc4ccccc4n3)[C@@H]1C2 | inconclusive: 12.6 µM [inhibitor, single point] | – | –
30 | O=C(NC1CC1)C1(c2ccc(Cl)cc2)CCOCC1 | – | inactive: 8.9% [at 44.1 µM] | –
31 | c1ccc(N2CCN(C3CCCN(Cc4cn[nH]c4C4CCCCC4)C3)CC2)cc1 (centres undefined) | inconclusive: 11.2 µM [inhibitor, single point] | – | –
32 | C=CCS(=O)(=O)N1C[C@H]2OC(=O)N(CCc3cccc(Cl)c3)[C@H]2C1 | – | inactive: -6.97% | –
33 | CCn1cc2nc(SCC(=O)Nc3cc(OC)cc(OC)c3)n(Cc3ccc(Cl)cc3)c(=O)c2n1 | inconclusive: 11.2 µM [inhibitor, single point] | – | –
34 | Cc1ccc(C(=O)N2CCC(CCC(=O)N3CCc4ccccc4C3)CC2)cc1 | – | – | inactive
35 | CC(=O)N1CCN(C(=O)C[C@@H]2CCNC[C@@H]2Cc2cc(CSc3ccccc3)on2)CC1 | inconclusive: 0.447 µM [inhibitor, full curve, poor fit] | – | –
36 | CC(=O)N1Cc2ccccc2CC2(CCN(CC3CCNC3)CC2)C1 (centres undefined) | – | inactive: 12.9% | –
37 | C=CCS(=O)(=O)NCc1cccnc1N1CCN(c2ccccc2OC)CC1 | – | inactive: -3.3% | –
38 | CCCCN(CC)CCNC(=O)C1CCN(S(=O)(=O)c2cccc3nsnc23)CC1 | inconclusive: 17.8 µM [inhibitor, single point] | – | –
39 | CCCNC(=O)N[C@@H]1C[C@H](COc2ccc(S(C)(=O)=O)cc2)[C@@H](O)[C@H]1O | – | inactive: 0.724% [at 44.1 µM] | –
40 | CCNC(=O)c1ccc(NC(=O)N2CCCCc3ccccc32)cc1 | inconclusive: 10 µM [inhibitor, single point] | – | –
41 | CC(C)NC(=O)N1[C@H]2CC[C@@H]1c1cncnc1C2 | – | inactive: -7.7% | –
42 | COc1ccc(C2CC(=O)Nc3c2c(=O)[nH]c2nc4ccccc4n32)cc1 (centres undefined) | – | inactive: 7.56% | –
43 | O=C(O)CCC(=O)N1CCC2(CC1)Cc1ccccc1N(C(=O)c1ccc(Cl)cc1)C2 | inconclusive: 8.91 µM [inhibitor, partial curve, poor fit] | – | –
44 | COc1ccc(-c2nn3c(=O)cc(CN4CCN(C(=O)/C=C/c5ccccc5)CC4)nc3s2)cc1 | – | inactive: -19.8% | –
45 | CN1c2cc(C(=O)Nc3cccc(C(F)(F)F)c3)ccc2C(=O)N2CCCCCC21 (centres undefined) | inconclusive: 8.91 µM [inhibitor, partial curve, poor fit] | – | –
46 | CCCCCNC(=O)Cc1csc2nc(C)c(-c3cc(C)n(-c4cc(Cl)ccc4C)n3)c(=O)n12 | inconclusive: 0.794 µM [inhibitor, full curve, poor fit] | – | –

Row | Compound | Potency | activity, negative = inhibition | outcome
47 | Cc1ccc(C(=O)NC2CCN(c3cc(-c4ccccc4)[nH]n3)CC2)cc1F | – | inactive: -25.7% | –
48 | COc1ccc(Nc2cnc3ccc(-c4ccccc4)nn23)cc1OC | inconclusive: 3.16 µM [inhibitor, single point] | – | –
49 | Oc1ccccc1CN1CCOC[C@H]1c1ncc(-c2ccc(F)cc2F)[nH]1 | active: 3.16 µM | – | –
50 | Cc1nn(-c2ccc(C(F)(F)F)cc2)c(C)c1[C@@H]1C=C[C@@H](NC(=O)CC(C)(C)CC(=O)O)C1 | – | – | inactive
51 | CC(=O)Nc1ccc(CNC[C@H]2Cn3c(-c4ccc5c(c4)OCCO5)cnc3CO2)cc1 | inconclusive: 11.2 µM [inhibitor, partial curve, poor fit] | – | –
52 | C=CCNC(=O)c1ccc(Cn2ccn3nc4c(c3c2=O)CCCC4)cc1 | inconclusive: 20 µM [inhibitor, single point] | – | –
53 | Cc1ccc(CNC(=O)CCCn2c(=O)c3ccccc3n(CC(=O)Nc3ccc(C)cc3)c2=O)cc1 | inconclusive: 20 µM [inhibitor, single point] | – | –
54 | O=C(Nc1ccc2ncnc(N3CCCC3)c2c1)c1ccc(F)cc1Cl | – | – | inactive
55 | CCC(NC(=O)c1cc(Cn2ccc3ccccc32)[nH]n1)c1ncccc1C (centres undefined) | inconclusive: 12.6 µM [inhibitor, single point] | – | –
56 | O=C(NCCc1ccncc1)C1c2ccccc2C(=O)N(C2CCCCC2)C12CCCCC2 (centres undefined) | active: 10 µM | – | –
57 | O=C(NCCCN1CCCCCC1)c1ccc2c(c1)sc1nc(-c3ccccc3)cn12 | active: 10 µM | – | –
58 | Cc1cc(C)n(CC2(CNC(=O)c3cc(S(N)(=O)=O)ccc3F)CC2)n1 | – | inactive: -0.342% | –
59 | O=[S+]([O-])(c1cccc(C(F)(F)F)c1)N1CC(Oc2ccc(F)cc2F)C1 | – | inactive: 13.1% | –
60 | COc1ccc(-c2nc3cc(C)ccc3cc2CN2CCC(N(C)C)C2)cc1 (centres undefined) | inconclusive: 12.6 µM [inhibitor, partial curve, poor fit] | – | –
61 | Cc1ccc(C)c(Nc2cc(C(=O)NC3CCCC3)c3ccccc3n2)c1 | – | – | inactive
62 | O=C(N[C@@H]1CN(Cc2ccccc2)C[C@H]1CO)c1ncccn1 | – | inactive: 0.962% | –
63 | CCOC(=O)C1CCCN(C(=O)c2ccc3c(c2)sc2nc(-c4ccc(CC)cc4)cn23)C1 (centres undefined) | inconclusive: 10 µM [inhibitor, single point] | – | –
64 | Cc1nnc2n1C(C)CN(C(=O)CCSc1ccc3c(c1)OCCO3)C2 (centres undefined) | – | inactive: 2.67% | –
65 | CCOC(=O)c1ccc(N2C(=O)c3n[nH]c(-c4ccco4)c3C2c2cccc(OC)c2)cc1 (centres undefined) | inconclusive: 3.55 µM [inhibitor, single point] | – | –
66 | CCC1(C(=O)O)CCCCC(=O)N1 (centres undefined) | – | inactive: 10.4% | –
67 | Cc1noc(C)c1S(=O)(=O)N1CC(N(CC(C)C)C2CCOCC2)C1 | – | inactive: -25.1% | –
68 | CCc1noc(-c2nc(Cc3ccccc3C)no2)n1 | inconclusive: 17.8 µM [inhibitor, single point] | – | –
69 | CCn1c(C(=O)N2CCC(C(=O)NCCc3ccc(C)cc3)CC2)cc2sccc21 | inconclusive: 17.8 µM [inhibitor, partial curve, poor fit] | – | –
